Patent US20250333497A1, “ACTIVATING ANTIBODIES OF RECEPTOR PROTEINS PLXDC1 AND PLXDC2” (THE REGENTS OF THE UNIVERSITY OF CALIFORNIA, priority 2022, published 2025)

Assays:
[1] = target: T1, Domain A-deleted PLXDC1 (PLXDC1-dA) (Homo sapiens, UniProt Q8IUK5); experiment: Domain A binding specificity: binding to Domain A-deleted PLXDC1 expressed in transfected cells
T1 construct: expressed in transfected cells
From the text: (§1) The specific binding to Domain A of a PLXDC protein can be tested with a method described herein. In some embodiments, the method employs a PLXDC with the Domain A deleted. […] An example is Compound 369 as described above.
(§2) The Domain A-binding antibodies are 3-C11, 4-A8, 5-E2, 2-H2, 3-G6, 3-G7, 8-A7, 8-A9, 8-C9 and 8-D9.
(§3) Both full length PLXDC1 and Domain A deleted PLXDC1 (PLXDC1-dA) have an epitope tag on the N-terminus.

[2] = target: T2, full length PLXDC1 (PLXDC1-Full) (Homo sapiens, UniProt Q8IUK5); experiment: Domain A binding specificity: binding to full length PLXDC1 expressed in transfected cells
T2 construct: expressed in transfected cells
T2 sequence (Q8IUK5 19-500): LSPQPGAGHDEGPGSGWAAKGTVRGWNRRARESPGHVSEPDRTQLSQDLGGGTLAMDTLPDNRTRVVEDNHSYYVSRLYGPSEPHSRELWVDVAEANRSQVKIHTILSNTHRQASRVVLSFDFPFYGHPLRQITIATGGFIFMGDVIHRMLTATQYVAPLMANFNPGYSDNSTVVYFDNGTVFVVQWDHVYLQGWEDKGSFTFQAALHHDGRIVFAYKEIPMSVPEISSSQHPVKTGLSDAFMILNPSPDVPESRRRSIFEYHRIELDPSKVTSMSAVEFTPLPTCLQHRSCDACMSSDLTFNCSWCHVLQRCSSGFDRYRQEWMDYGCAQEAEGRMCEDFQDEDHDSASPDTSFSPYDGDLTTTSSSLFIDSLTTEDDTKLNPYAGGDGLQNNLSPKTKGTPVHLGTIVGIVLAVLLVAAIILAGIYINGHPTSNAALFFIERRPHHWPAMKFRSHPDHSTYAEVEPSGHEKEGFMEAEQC
From the text: as §1, §2, §3

[3] = antibodies of Table 3 tested for ability to bind Domain A
[4] = transfected into a cell line that does not express PLXDC1, FIG. 3-4

B1: A003: VH SEQ ID NO:98, VL SEQ ID NO:99; Domain A-binding PLXDC1-activating antibody (antibody, V domains shown)
VH: QVQLVESGGGVVQPGRSLRLSCAASGFTFRDYGMHWVRQAPGKGLEWVAVISYHGRNEYYANSVKGRFTISRDNSKNTLYLQMNSLRAEDTAVYYCARGAYGDDFDVWGQGTLVTVSS
VL: [not shown - about 100 residues]
[1]; [3]
  binding to PLXDC1 mutant with Domain A deleted: not the mutant with Domain A deleted
[1]; [4]
  binding to Domain A-deleted PLXDC1 (PLXDC1-dA): did not bind to Domain A-deleted PLXDC1
[2]; [3]
  binding to PLXDC1: able to bind PLXDC1
[2]; [4]
  binding to full length PLXDC1 (PLXDC1-Full): only bound to full length PLXDC1
